B1: Caulobacter ParB omega fusion; a variant is named by its letters at X, in order, B8GW30 (parent)
chain: MESVVVGEPGMSEGRRGLGRGLSALLGEVDAAPAQAPGEQLGGSREAPIEILQRNPDQPRRTFREEDLEDLSNSIREKGVLQPILVRPSPDTAGEYQIVAGERAWRAAQRAGLKTVPIMVRELDDLAVLEIGIIENVQRADLNVLEEALSYKVLMEKFERTQENIAQTIGKSXSHVANXMRLLXLPDEVQSYLVSGELTAXHARAIAAAADPVALAKQIIEGGLSVRETEALARKAPNLSAGKSKGGRPPRVKDTDTQALESDLSSVLGLDVSIDHRGSTGTLTITYATLEQLDDLCNRLTRGI

Over roughly 81,000 sequences, “one-hybrid fitness for binding NBS DNA” has its median near -0.1; the highest 2% begin near 0.36. Some of the results follow. Some results are limits rather than exact numbers.

This assay covers variants of B1. The assay can be described thus: one-hybrid fitness for binding NBS DNA (the Noc-binding site; scaled: cognate 1, non-cognate 0); higher = stronger binding. To be noted: with NBS DNA site. In short, it runs like this: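 Pre- and post-selection plasmids were Illumina-sequenced, three replicate libraries were pooled, and any variant with under 10 reads was removed. The libraries were Caulobacter ParB with four specificity codons randomised, selected in E. coli USO through a HIS3 reporter whose site is 19 bp from the promoter. Cells grew 48 hours at 37°C on M9 without histidine, with 0.1 mM IPTG and 5 mM 3-AT. Fitness is the log change in variant-to-wild-type read ratio, rescaled against cognate and non-cognate.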
In the case of QAGF, the “one-hybrid fitness for binding NBS DNA” value was at most 0.2.
For IPQH, the “one-hybrid fitness for binding NBS DNA” value was at most 0.2.
Take VKYS: the “one-hybrid fitness for binding NBS DNA” value was at most 0.2.
Consider WMSM, for which the “one-hybrid fitness for binding NBS DNA” value was at most 0.2.
Regarding LKRG, the “one-hybrid fitness for binding NBS DNA” value is at most 0.2.
On to QSRH, for which the “one-hybrid fitness for binding NBS DNA” value turned out to be 0.535.
The figure for NFDV is at most 0.2; for HIDG it is at most 0.2; for WAEG it is at most 0.2.
Turning to TVYE, the “one-hybrid fitness for binding NBS DNA” value was at most 0.2.
The figure for MNNC is at most 0.2; for LFHC it is at most 0.2.
Regarding ASAW, the “one-hybrid fitness for binding NBS DNA” value was at most 0.2.
With SEKG, the “one-hybrid fitness for binding NBS DNA” value is at most 0.2.
The figure for IEQS is at most 0.2; for KMQG it is at most 0.2.
SHID: the “one-hybrid fitness for binding NBS DNA” value was at most 0.2.
KEVR: the “one-hybrid fitness for binding NBS DNA” value is at most 0.2.
Turning to MSIG, the “one-hybrid fitness for binding NBS DNA” value is at most 0.2.
On to KQSH, for which the “one-hybrid fitness for binding NBS DNA” value was at most 0.2.
Take NCHC: the “one-hybrid fitness for binding NBS DNA” value was at most 0.2.
On to KAEM, for which the “one-hybrid fitness for binding NBS DNA” value was at most 0.2.
On to LMKV, for which the “one-hybrid fitness for binding NBS DNA” value is at most 0.2.
Take MHQL: the “one-hybrid fitness for binding NBS DNA” value was at most 0.2.
On to TATF, for which the “one-hybrid fitness for binding NBS DNA” value was at most 0.2.
As to TMDA, the “one-hybrid fitness for binding NBS DNA” value was at most 0.2.
On to NSME, for which the “one-hybrid fitness for binding NBS DNA” value was at most 0.2.
Take FWPR: the “one-hybrid fitness for binding NBS DNA” value was found to be 0.486.
For ENSG, the “one-hybrid fitness for binding NBS DNA” value is at most 0.2.
The figure for SLWS is at most 0.2; for WTKG it is at most 0.2; for RALS it is 0.283.
With VNAS, the “one-hybrid fitness for binding NBS DNA” value is at most 0.2.
The figure for LMHG is at most 0.2; for SFGG it is at most 0.2.
As to NAYS, the “one-hybrid fitness for binding NBS DNA” value is at most 0.2.
Turning to MPER, the “one-hybrid fitness for binding NBS DNA” value was at most 0.2.
In the case of ARPP it was at most 0.2; in that of QTVK, at most 0.2.
IPHC: the “one-hybrid fitness for binding NBS DNA” value was at most 0.2.
With ARYY, the “one-hybrid fitness for binding NBS DNA” value is at most 0.2.
Consider QWNT, for which the “one-hybrid fitness for binding NBS DNA” value is at most 0.2.
For VPRS, the “one-hybrid fitness for binding NBS DNA” value was at most 0.2.
The figure for PTET is at most 0.2; for TARC it is at most 0.2; for QWTQ it is at most 0.2.
In the case of QVTM it was at most 0.2; in that of PCPT, at most 0.2.
As to KQNY, the “one-hybrid fitness for binding NBS DNA” value is at most 0.2.
As for RCTC, the “one-hybrid fitness for binding NBS DNA” value is at most 0.2.
Regarding RDHI, the “one-hybrid fitness for binding NBS DNA” value is at most 0.2.
Take AHLT: the “one-hybrid fitness for binding NBS DNA” value was at most 0.2.
For the variant STQT, the “one-hybrid fitness for binding NBS DNA” value is at most 0.2.
In the case of RNNN it was at most 0.2; in that of EAKT, at most 0.2.
The figure for VAGI is at most 0.2; for FYPL it is at most 0.2; for RLPE it is at most 0.2.
As for DPGG, the “one-hybrid fitness for binding NBS DNA” value was at most 0.2.
Turning to QLGE, the “one-hybrid fitness for binding NBS DNA” value was at most 0.2.
Consider ANIS, for which the “one-hybrid fitness for binding NBS DNA” value was at most 0.2.
With NLVY, the “one-hybrid fitness for binding NBS DNA” value is at most 0.2.
Turning to RCGT, the “one-hybrid fitness for binding NBS DNA” value came out at 0.462.
For the variant EFKS, the “one-hybrid fitness for binding NBS DNA” value was at most 0.2.
The figure for WRAI is at most 0.2; for GRRF it is at most 0.2.
In the case of KLII it was at most 0.2; in that of SYWR, at most 0.2.
Turning to VVGT, the “one-hybrid fitness for binding NBS DNA” value was at most 0.2.
In the case of PDDC it was at most 0.2.
For PYWF, the “one-hybrid fitness for binding NBS DNA” value was at most 0.2.
Regarding QVFP, the “one-hybrid fitness for binding NBS DNA” value is at most 0.2.
In the case of STDS it was at most 0.2.
Take VLIR: the “one-hybrid fitness for binding NBS DNA” value was at most 0.2.
The figure for KQRM is at most 0.2.
As for SLLA, the “one-hybrid fitness for binding NBS DNA” value was at most 0.2.
In the case of AQGS it was at most 0.2; in that of VRSM, at most 0.2.
The figure for NWLG is at most 0.2; for VLPY it is at most 0.2; for RWQL it is at most 0.2.
Take VNPA: the “one-hybrid fitness for binding NBS DNA” value was at most 0.2.
Turning to MFTE, the “one-hybrid fitness for binding NBS DNA” value was at most 0.2.
Regarding CCVS, the “one-hybrid fitness for binding NBS DNA” value was at most 0.2.
For the variant WRGW, the “one-hybrid fitness for binding NBS DNA” value was at most 0.2.
Consider QCNM, for which the “one-hybrid fitness for binding NBS DNA” value is 0.224.
The figure for GCFT is at most 0.2; for PQYI it is at most 0.2; for IMVS it is at most 0.2.
In the case of NCLY it was at most 0.2; in that of PTYW, at most 0.2.
For the variant ICPL, the “one-hybrid fitness for binding NBS DNA” value is at most 0.2.
As for RQAQ, the “one-hybrid fitness for binding NBS DNA” value was at most 0.2.
The figure for FAWT is at most 0.2; for NNHG it is at most 0.2; for RLVD it is at most 0.2.
As to WYAG, the “one-hybrid fitness for binding NBS DNA” value is at most 0.2.

The values are drawn from a collection of fitness landscapes (doi:10.1016/j.celrep.2020.107928).
